Experimental data from PubChem BioAssay AID624296 (National Center for Advancing Translational Sciences (NCATS), 2012).
Hit rate of the full screen: of about 350,000 compounds, about 9,900 (2.8%) were called active. The inconclusive results got no clear call from the source; some entries with a clear call stand among them for comparison. Calls follow the shape of the dose curve; as a rule, active = well fitted activation curve with a large enough effect; inconclusive = small, poorly fitted or top-dose-only effect; inactive = no such curve, though single readings can be large or run the other way. No potency is given beside an inconclusive call; the fits are too rough.

Assay: A quantitative high throughput screen for small molecules that induce DNA re-replication in MCF 10a normal breast cells. Also: nearly all actives have a fitted effect of over 50% in size. As to activity, positive = re-replication: % of control where 0% means no effect.
Settings: MCF 10A DNA re-replication, Hoechst nuclear intensity, 48 h; activity, positive = re-replication: at 46.1 µM (top of the series)
Potency is read from the fitted curve at half-maximal effect; tags tell the direction and shape of the fitted curve.

SMILES | activity, positive = re-replication | Potency
Cc1ccc(OCc2nc(C#N)c(N3CCCC3)o2)cc1 | inactive: 1.2% | –
Cc1ccc(S(=O)(=O)N2CCC(C(=O)NCc3ccccc3CN3CCCC3)CC2)cc1C | – | inconclusive [activator, partial curve, poor fit]
CCn1c(SCC(=O)Nc2ccc(C(C)=O)cc2)nc2c([nH]c3ccccc32)c1=O | – | inconclusive [activator, single point]
Cc1cc(C)n(CCC(=O)N/N=C/c2ccc(O)cc2)n1 | inactive: -6.22% | –
CC(C)=CC(=O)OCc1cc([N+](=O)[O-])cc2c1OCOC2 | inactive: 0.0858% | –
CCOC(=O)c1ccc(NC(=O)c2cccnc2)cc1 | – | inconclusive [activator, partial curve, poor fit]
CCOc1ccccc1CNC(=O)CCc1cn(CC)c2ccccc12 | inactive: 4.58% | –
CC(Oc1ccc(Cl)cc1Cl)C(=O)NCCCn1ccnc1 (centres undefined) | – | active: 16.4 µM
Cc1ccc(NC(=O)CSCC(=O)OCc2cc(=O)oc3cc(O)ccc23)c(C)c1 | inactive: 37% | –
NS(=O)(=O)c1ccc(NC(=O)COC(=O)c2cn(-c3ccccc3)nc2-c2ccccc2)cc1 | – | inconclusive [activator, single point]
O=C(CCl)N(C/C=C/c1ccccc1)c1ccc2c(c1)OCCO2 | – | inconclusive [activator, single point]
COc1cc(OC)cc(-c2c(C#Cc3ccsc3)c3cc(-c4ccc(N(C)C)nc4)ccc3n2C)c1 | – | inconclusive [activator, single point]
Cn1c(=O)n(C)c2cc([N+](=O)[O-])c(N3CCN(C(=O)c4ccccc4Br)CC3)cc21 | inactive: 1.14% | –
CCOC(=S)SCC(=O)Nc1nc(-c2ccccc2)cs1 | – | active: 20.6 µM
CCOc1ccc(-c2cc3nc(C4CCN(C(=O)OC(C)(C)C)CC4)c(C(=O)O)cn3n2)cc1 | – | inconclusive [activator, partial curve, poor fit]
COc1c(Cl)cc(Cl)cc1/C=N/NC(=O)c1nnn(-c2nonc2N)c1CN1CCC(C)CC1 | – | active: 5.8 µM
CCN(CC)S(=O)(=O)c1ccc(OC)c(NC(=O)CSc2cc(Cl)ccc2Cl)c1 | inactive: 11.7% | –
CC(C(=O)Nc1ccccn1)N1C(=O)c2ccccc2S1(=O)=O (centres undefined) | inactive: -2.91% | –
O=C1NN=C(c2ccc(Cl)cc2)CC1c1cccc(Br)c1 (centres undefined) | – | inconclusive [activator, single point]
COc1ccc2[nH]cc(CCNC(=O)C3CCCO3)c2c1 (centres undefined) | – | inconclusive [activator, full curve, poor fit]
Cc1noc(C)c1COC(=O)c1cc(=O)[nH]c2ccccc12 | inactive: 0.784% | –
CC1(O)C(=O)c2ccccc2N(c2ccccc2)C1=O (centres undefined) | – | inconclusive [activator, full curve, poor fit]
CCn1c(C(c2ccccc2)c2ccccc2)n[nH]c1=S | inactive: -11% | –

SMILES | activity, positive = re-replication | Potency
CN1CCN(C(=O)c2ccc3c(c2)N(C)C(=O)/C(=C/c2cccc(Cl)c2)S3)CC1 | – | active: 13 µM
Cc1cc(S(=O)(=O)N2CCCCC2)ccc1OCC(=O)Nc1ccccc1 | – | inconclusive [activator, partial curve, poor fit]
c1ccc(N=Nc2ccc3cccccc2-3)cc1 | – | inconclusive [activator, partial curve, poor fit]
O=c1[nH]c(Cc2cccs2)nc2scc(-c3ccc(Cl)cc3)c12 | – | inconclusive [activator, partial curve, poor fit]
CNC(=O)CSc1n[nH]c(-c2cc(Cl)ccc2OC)n1 | – | inconclusive [activator, partial curve, poor fit]
CC(C)(C)c1ccc(/C=C/C(=O)N2CCN(c3ncccn3)CC2)cc1 | – | inconclusive [activator, partial curve, poor fit]
O=C(NCCC1=CCCCC1)C1CCN(S(=O)(=O)N2CCOCC2)CC1 | inactive: -27.7% | –
CN(C)C(=O)N1CCC(C(=O)N2CCCC(C(=O)c3ccc(C(C)(C)C)cc3)C2)CC1 (centres undefined) | inactive: 11.3% | –
COCCCNC(=O)CC1C(=O)N(Cc2ccccc2)C(C)c2nc3ccccc3n21 (centres undefined) | inactive: -3.91% | –
COC(=O)CCSCC(=O)Nc1cc(C)on1 | – | inconclusive [activator, partial curve, poor fit]
CC(C)(C)C(=O)N1CCN(c2nc3ccc(Cl)cc3s2)CC1 | – | inconclusive [activator, full curve, poor fit]
COc1ccc(NC(=O)c2ccccc2NC(=O)CSc2ccccc2)cc1 | – | inconclusive [activator, single point]
N#CC1=C2SCC(O)(c3ccccc3)N2C(=O)CC1c1cccs1 (centres undefined) | – | active: 1.3 µM
NC(=O)C1CCN(c2nc(-c3cccs3)cs2)CC1 | – | inconclusive [activator, partial curve, poor fit]
Cc1ccc(S(=O)(=O)NCCN=C(CN2CCOCC2)NS(=O)(=O)c2ccc(C)cc2)cc1 | inactive: 256% [at 0.0737 µM] | –
CC(=O)N/C(=N\OCc1ccc(Br)cc1)c1nonc1NC(C)=O | inactive: 3.04% | –
COc1cc(N)c(Cl)cc1C(=O)N[C@H]1CCN(CCCOc2ccc(F)cc2)C[C@H]1OC | – | inactive
Oc1ccc(C=Nc2cccc3ccccc23)c(O)c1 | – | inconclusive [activator, single point]
NC(=O)CC(NC(=O)Cc1cccc2ccccc12)c1ccc(NC2CCCCCC2)c([N+](=O)[O-])c1 (centres undefined) | – | inconclusive [activator, single point]
Cc1n[nH]c(=O)c2c(NC(=O)COC(=O)/C=C/c3cccc(C(F)(F)F)c3)oc(C)c12 | – | inconclusive [activator, partial curve, poor fit]
CCOC(=O)c1cnc(SC2CC(=O)N(c3ccc(OC)c(OC)c3)C2=O)nc1N (centres undefined) | – | inconclusive [activator, single point]
CN(CC(=O)Nc1ccccc1Br)C(=O)c1ccc(COc2ccccc2)cc1 | – | inconclusive [activator, partial curve, poor fit]
CN(C)S(=O)(=O)c1ccc(C(=O)Nc2nc(-c3cccs3)cs2)cc1 | – | inconclusive [activator, partial curve, poor fit]

SMILES | activity, positive = re-replication | Potency
O=C(/C=C/c1ccc(F)cc1)Nc1cccc(S(=O)(=O)N2CCOCC2)c1 | – | inconclusive [activator, single point]
COc1ccccc1[C@H]1C(c2ccc(F)cc2)=NN(c2ccccc2)[C@@H]1CO | – | inconclusive [activator, partial curve, poor fit]
CN(C1CCCCC1)S(=O)(=O)c1cccc(C(=O)OCC(=O)NC2CCCc3ccccc32)c1 (centres undefined) | – | inconclusive [activator, partial curve, poor fit]
CC(C)N1C(=S)N(Cc2ccco2)C(=O)C1CC(=O)Nc1ccccc1 (centres undefined) | inactive: -4.37% | –
O=C(Cc1nnc(NC(=O)Nc2ccc(F)cc2)s1)Nc1ccccc1 | inactive: 1.28% | –
COC(=O)C(C)Sc1nc2c([nH]c3ccccc32)c(=O)n1C (centres undefined) | – | inconclusive [activator, partial curve, poor fit]
Cc1ccc(/C=N/NC(=O)Cn2cnc3ccccc32)cc1 | – | inconclusive [activator, single point]
Cc1ccccc1OCC(=O)NC(=S)Nc1ccc2c3c(cccc13)CC2 | – | inconclusive [activator, single point]
Cc1nn(C(C)C(=O)Nc2sc3c(c2C#N)CCCC3)c(C)c1[N+](=O)[O-] (centres undefined) | – | inconclusive [activator, single point]
Cc1cccc(NC(=O)C(=O)NCC2CCCN2S(=O)(=O)c2ccccc2)c1 (centres undefined) | inactive: 21.3% | –
Cc1cc(C)nc(NN2C(=O)/C(=C/c3ccccc3)SC2=S)n1 | – | inconclusive [activator, single point]
Cc1ccc(N2C(=O)CN(Cc3sccc3C)C2=S)cc1C | – | inconclusive [activator, single point]
CC(C)CCC(CCNCc1ccccn1)c1ccc(Cl)cc1 (centres undefined) | – | inconclusive [activator, single point]
Cc1cc(C)c(S(=O)(=O)c2ccc(Cl)cc2)c(Cl)n1 | inactive: -1.28% | –
OC(CCCN1CCCCC1)(c1ccccc1)c1ccc(C(F)(F)F)cc1 (centres undefined) | – | active: 20.6 µM
COc1cc2c(cc1OC)CN(Cc1cc(=O)oc3cc(C)c(C)cc13)CC2 | – | inconclusive [activator, single point]
C=CCSc1nnc(-c2cc3c(s2)-c2ccccc2CC3)o1 | – | inconclusive [activator, single point]
O=C(CSc1ccc(Br)cc1)N1CCN(S(=O)(=O)c2ccccc2)CC1 | inactive: 3.91% | –
COc1cccc(-c2cc(C(F)(F)F)nc(N3CCN(c4ccccc4)CC3)n2)c1 | – | inconclusive [activator, partial curve]
COc1ccc(C)cc1N(C(=O)c1snc(C(N)=O)c1N)C(C(=O)NC1CCCCC1)c1ccc(C)o1 (centres undefined) | inactive: 26.1% | –
CS(=O)(=O)N(CC(=O)Nc1ccccc1Br)Cc1ccccc1 | – | inconclusive [activator, partial curve, poor fit]
COc1ccc(NC(=O)CNS(=O)(=O)c2ccccc2)cc1Cl | – | active: 8.2 µM
O=C(Nc1cc(=O)c2ccccc2o1)N1CCOCC1 | – | inconclusive [activator, partial curve]
